Measurements taken from PMC8350409.
Results are given in words; binding and its absence hold for the method and conditions named. In cells and extracts the contact can be indirect. Some binding calls cover weakened binding; strength is not graded here. Sequences can lack the tags named with a protein.

The chains behind the UniProt entries cited, without tags or fusion partners. Where a name states a change or a piece, a line headed by the entry shows the natural chain unless it says otherwise.
UniProt Q9UJ55: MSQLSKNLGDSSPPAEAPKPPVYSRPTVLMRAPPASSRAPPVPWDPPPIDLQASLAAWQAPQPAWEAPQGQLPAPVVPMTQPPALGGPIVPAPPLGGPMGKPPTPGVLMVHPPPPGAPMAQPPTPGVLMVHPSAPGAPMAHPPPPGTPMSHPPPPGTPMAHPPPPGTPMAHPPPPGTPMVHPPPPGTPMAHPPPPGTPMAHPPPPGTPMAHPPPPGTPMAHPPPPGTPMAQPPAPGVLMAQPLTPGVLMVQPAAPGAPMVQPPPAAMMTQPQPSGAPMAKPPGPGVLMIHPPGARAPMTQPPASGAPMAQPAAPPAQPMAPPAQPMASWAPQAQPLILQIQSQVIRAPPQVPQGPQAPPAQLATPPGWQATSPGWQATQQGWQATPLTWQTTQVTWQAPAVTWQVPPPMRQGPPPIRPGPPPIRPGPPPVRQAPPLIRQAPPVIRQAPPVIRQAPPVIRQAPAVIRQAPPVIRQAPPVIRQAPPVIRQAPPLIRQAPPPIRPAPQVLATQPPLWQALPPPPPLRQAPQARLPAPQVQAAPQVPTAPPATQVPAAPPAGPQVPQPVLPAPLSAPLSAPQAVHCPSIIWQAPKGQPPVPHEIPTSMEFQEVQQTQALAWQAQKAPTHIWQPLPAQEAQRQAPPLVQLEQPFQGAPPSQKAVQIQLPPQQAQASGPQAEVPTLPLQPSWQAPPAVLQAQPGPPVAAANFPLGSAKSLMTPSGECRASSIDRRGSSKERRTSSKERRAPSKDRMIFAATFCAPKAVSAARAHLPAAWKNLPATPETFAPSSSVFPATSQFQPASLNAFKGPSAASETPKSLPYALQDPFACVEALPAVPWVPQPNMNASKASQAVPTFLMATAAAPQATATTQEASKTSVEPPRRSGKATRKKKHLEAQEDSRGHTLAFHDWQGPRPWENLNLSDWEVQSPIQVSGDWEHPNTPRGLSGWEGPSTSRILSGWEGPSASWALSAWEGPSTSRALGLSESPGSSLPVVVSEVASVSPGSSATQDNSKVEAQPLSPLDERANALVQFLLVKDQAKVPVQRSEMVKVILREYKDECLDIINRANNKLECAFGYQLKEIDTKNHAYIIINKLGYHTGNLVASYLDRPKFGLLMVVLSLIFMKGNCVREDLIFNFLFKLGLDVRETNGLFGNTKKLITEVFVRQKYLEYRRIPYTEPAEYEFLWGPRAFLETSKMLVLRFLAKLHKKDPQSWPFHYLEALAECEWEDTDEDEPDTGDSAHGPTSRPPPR

Columns and labels:
Test in all cases: co-IP; transient cotransfection of FLAG-YTHDF1, 2 or 3 with V5-MAGEL2 or V5-CtermMAGEL2; FLAG immunoprecipitation (anti-FLAG M2 affinity gel); V5 immunoblot
FLAG-YTHDF1 = biological target: T1, FLAG-YTHDF1 (UniProt Q9BYJ9)
T1 sequence: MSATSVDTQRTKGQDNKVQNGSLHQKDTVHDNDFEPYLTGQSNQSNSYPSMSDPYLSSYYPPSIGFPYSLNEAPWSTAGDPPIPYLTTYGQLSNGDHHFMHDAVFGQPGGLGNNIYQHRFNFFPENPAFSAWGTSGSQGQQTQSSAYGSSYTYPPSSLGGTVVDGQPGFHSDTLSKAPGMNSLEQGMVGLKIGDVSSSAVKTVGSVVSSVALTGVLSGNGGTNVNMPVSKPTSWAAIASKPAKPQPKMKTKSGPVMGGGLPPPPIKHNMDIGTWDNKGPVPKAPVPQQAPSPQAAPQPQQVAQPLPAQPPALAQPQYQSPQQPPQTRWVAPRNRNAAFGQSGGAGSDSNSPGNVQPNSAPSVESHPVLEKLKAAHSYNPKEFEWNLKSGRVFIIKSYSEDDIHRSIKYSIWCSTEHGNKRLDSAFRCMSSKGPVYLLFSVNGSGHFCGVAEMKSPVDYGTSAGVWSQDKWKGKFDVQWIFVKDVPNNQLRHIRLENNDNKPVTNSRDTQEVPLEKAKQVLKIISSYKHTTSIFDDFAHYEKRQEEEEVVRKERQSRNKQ

FLAG-YTHDF2 = biological target: T2, FLAG-YTHDF2 (UniProt Q9Y5A9)
T2 sequence: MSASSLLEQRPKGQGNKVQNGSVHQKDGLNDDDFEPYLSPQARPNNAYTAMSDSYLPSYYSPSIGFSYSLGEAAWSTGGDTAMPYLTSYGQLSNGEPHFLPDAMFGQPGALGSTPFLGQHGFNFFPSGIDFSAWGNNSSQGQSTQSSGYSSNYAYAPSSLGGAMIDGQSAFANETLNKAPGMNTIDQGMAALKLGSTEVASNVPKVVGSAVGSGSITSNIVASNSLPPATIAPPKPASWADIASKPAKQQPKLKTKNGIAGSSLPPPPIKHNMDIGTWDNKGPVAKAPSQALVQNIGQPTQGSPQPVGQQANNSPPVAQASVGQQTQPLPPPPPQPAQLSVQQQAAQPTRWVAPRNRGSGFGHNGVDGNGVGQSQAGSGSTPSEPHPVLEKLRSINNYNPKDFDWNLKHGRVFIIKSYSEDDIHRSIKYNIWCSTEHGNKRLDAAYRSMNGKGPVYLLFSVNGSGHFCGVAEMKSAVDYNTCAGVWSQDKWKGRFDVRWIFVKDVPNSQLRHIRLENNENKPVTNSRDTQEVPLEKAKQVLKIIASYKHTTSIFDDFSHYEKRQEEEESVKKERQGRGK

FLAG-YTHDF3 = biological target: T3, FLAG-YTHDF3 (UniProt Q7Z739)
T3 sequence: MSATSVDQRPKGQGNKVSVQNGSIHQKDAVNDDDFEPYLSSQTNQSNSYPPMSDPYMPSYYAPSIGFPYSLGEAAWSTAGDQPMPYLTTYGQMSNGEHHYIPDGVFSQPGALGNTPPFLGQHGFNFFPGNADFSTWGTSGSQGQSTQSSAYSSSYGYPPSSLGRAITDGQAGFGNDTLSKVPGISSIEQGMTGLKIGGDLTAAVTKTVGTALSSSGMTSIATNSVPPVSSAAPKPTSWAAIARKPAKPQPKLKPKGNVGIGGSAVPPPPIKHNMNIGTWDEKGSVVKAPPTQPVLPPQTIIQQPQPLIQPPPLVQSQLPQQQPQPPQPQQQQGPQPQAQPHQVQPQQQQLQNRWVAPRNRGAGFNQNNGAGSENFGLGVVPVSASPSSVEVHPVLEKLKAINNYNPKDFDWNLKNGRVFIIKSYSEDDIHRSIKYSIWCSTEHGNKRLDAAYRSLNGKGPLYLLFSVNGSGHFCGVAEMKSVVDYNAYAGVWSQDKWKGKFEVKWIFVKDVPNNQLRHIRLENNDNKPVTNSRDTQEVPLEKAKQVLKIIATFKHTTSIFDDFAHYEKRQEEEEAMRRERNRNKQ

binding (FLAG-YTHDF1) | binding (FLAG-YTHDF2) | binding (FLAG-YTHDF3) | Substance
binds | binds | binds | V5-MAGEL2 (from UniProt Q9UJ55 1-1249)
no binding | no binding | no binding | V5-tagged CtermMAGEL2 (from UniProt Q9UJ55 605-1249) (domain or fragment)
